# According to PubChem BioAssay AID686979 (National Center for Advancing Translational Sciences (NCATS), 2013):
# About 50,000 (12%) of roughly 420,000 compounds were called active. Inconclusive means that the source gave no clear call. Such entries were picked first, then a sample of the others. Calls come from the whole dose curve; as a rule, active = well fitted inhibition curve with a large enough effect; inconclusive = small, poorly fitted or top-dose-only effect; inactive = flat fitted curve, though single readings scatter. No potency is given beside an inconclusive call; the fits are too rough.
# Assay: qHTS for Inhibitors of human tyrosyl-DNA phosphodiesterase 1 (TDP1): qHTS in cells in presence of CPT; note: nearly all actives have a fitted effect of over 55% in size
# Conditions: chicken DT40 Tdp1-/-;hTDP1 cells + 20 nM CPT, ATP luminescence, 48 h; activity change, negative = growth inhibition: at 46.2 µM (top of the series) unless noted
# In short: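 Cell growth measured by CellTiter-Glo luminescence after a minimum 48 h, 37 C compound exposure with 20 nM CPT in Tdp1-knockout DT40 cells stably expressing hTDP1, seeded 400/well; qHTS titration format.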
# % is set by controls: 0 for no effect and ±100 for the full control effect; potency is the fitted concentration of half-maximal effect; tags give direction and shape of the fitted curve.
SMILES,Potency,"activity change, negative = growth inhibition"
C=CCNc1nc(-c2cccc(OC)c2O)nc2ccccc12,"inconclusive [inhibitor, single point]",–
CCOC(=O)N1CCN(C(=O)c2cc(OC)c(OC)c(OC)c2)CC1,inactive,–
O=C(Nc1ccc(Br)cc1)C1CCN(C(=O)c2ccc(F)cc2)CC1,"inconclusive [inhibitor, partial curve, poor fit]",–
O=C(N/N=C/c1cccnc1)c1ccc2ccccc2c1O,inactive,–
COc1ccc(CNC(=O)Nc2cccs2)cc1OC,inactive,–
NCCCC[C@H](N)C(=O)O,inactive,–
COc1ccc(-c2nc3c(c(SCC(=O)Nc4ccccc4F)n2)Cc2cc(C)ccc2O3)cc1,inactive,–
Cn1c(=O)c2c(nc(CN3CCN(CCO)CC3)n2CCc2ccccc2)n(C)c1=O,inactive,–
O=C(Cn1ccc(=O)[nH]c1=O)c1ccc([N+](=O)[O-])o1,active: 5.17 µM,–
O=C(O)c1cc2cc(S(=O)(=O)O)ccc2cc1O,inactive,–
Cc1ccc(NC(=O)CCCc2nnc3n(C)c(=O)c4sccc4n23)cc1F,"inconclusive [inhibitor, single point]",–
COc1ccccc1OCC(=O)NCCC1=CCCCC1,"inconclusive [inhibitor, partial curve]",–
CC(C)(C)NC(=O)C(c1ccco1)N(C(=O)Cn1nnc(-c2ccc(F)cc2)n1)c1ccccc1 (stereo not given),"inconclusive [inhibitor, single point]",–
Cc1cc(NC(=O)NN2CCOCC2)nn1-c1c(Cl)cccc1Cl,inactive,–
O=C(COC(=O)c1ccc(S(=O)(=O)N2CCCC2)cc1)Nc1cccc(Cl)c1,inactive,–
CCCNC(=O)c1ccc2c(c1)sc1nc(-c3ccc(C)cc3)cn12,active: 5.8 µM,–
COC(=O)C1CCN(C(=O)c2sc3nc(-c4ccc(F)cc4)cn3c2C)CC1,"inconclusive [inhibitor, partial curve]",–
COc1ccc([C@@H]2[C@@H]3C(=O)N(C(C)(C)C)C(=O)[C@@H]3[C@]3(Cc4ccccc4)C(=O)N(c4ccc(C)cc4)C(=O)N23)cc1,"inconclusive [inhibitor, single point]",–
Cc1cc(C)cc(NC(=S)NCCc2c[nH]c3ccccc23)c1,"inconclusive [inhibitor, single point]",–
O=C(Oc1ccc2c(=O)c(Oc3ccc4ccccc4c3)coc2c1)c1cncc(Br)c1,–,inconclusive: -30.9% [inhibitor]
O=C(c1cccnc1)N1CCN(Cc2cccc(F)c2)CC1,"inconclusive [inhibitor, full curve, poor fit]",–
CCC(C)Nc1nc2c(c(=O)[nH]c(=O)n2C)n1CCCc1ccccc1 (stereo not given),inactive,–
Cc1ccc(C(C)NC(=O)COC(=O)C2=COCCO2)cc1C (stereo not given),inactive,–
CCOC(=O)Cc1ccc(Nc2nc(NCc3ccccc3)nc3ccsc23)cc1,active: 23.1 µM,–
O=C(NCCN1CCOC1=O)C1CCC(=O)N(CCc2ccc(Cl)cc2)C1 (stereo not given),inactive,–

SMILES,Potency,"activity change, negative = growth inhibition"
CC1(C)OC(=O)C2=C(C[C@@H](C3CCCC3)O[C@H]2c2ccc(Cl)cc2)O1,"inconclusive [inhibitor, single point]",–
Cc1ccc(C)c(N2CCN(C(=O)C3CCCN(Cc4nc(-c5cccc(Cl)c5)oc4C)C3)CC2)c1 (stereo not given),–,inconclusive: -21.7% [inhibitor]
CCC(=O)NC(=S)Nc1ccc(S(=O)(=O)NC(C)=O)cc1,inactive,–
Cc1cccc(N2CCN(C(=O)CCNS(=O)(=O)c3ccc4c(c3)CCC(=O)N4)CC2)c1C,"inconclusive [inhibitor, partial curve]",–
CN(CC(=O)Nc1cccc(F)c1)C(=O)Cc1ccsc1,inactive,–
Cc1cc(C)cc(-n2ccn(CC(=O)Nc3cc(C)ccc3C)c(=O)c2=O)c1,inactive,–
Cc1ccc(NC(=O)C2(c3ccccc3)CC2(Cl)Cl)cc1C (stereo not given),"inconclusive [inhibitor, single point]",–
Cc1ccccc1CCN(C(=O)Cn1nnc2ccccc21)C(C(=O)NCC1CCCO1)c1nc2ccccc2n1C (stereo not given),"inconclusive [inhibitor, single point]",–
O=C(Nc1ccccc1)[C@@]12C[C@@H]1/C(=N/O)c1ccccc1O2,"inconclusive [inhibitor, single point]",–
Cc1cc(C)n(CCC(=O)NCC2Cc3cc(Cl)cc(-c4cnccn4)c3O2)n1 (stereo not given),inactive,–
CC(C)(C)c1cc(=O)n(-c2ccccc2)[nH]1,active: 25.9 µM,–
Nc1nc2ccccc2n1C(=O)c1ccccc1,"inconclusive [inhibitor, single point]",–
O=C(O)c1cccc(NC(=O)c2ccc3c(c2)C(=O)N(c2ccccc2)C3=O)c1,inactive,–
O=C(Nc1ccc2c(c1)OCO2)c1noc2c1CCCC2,inactive,–
Cc1ccc(N2CC(NC(=O)c3ccc(S(=O)(=O)N4CCCC4)cc3)CC2=O)cc1C (stereo not given),"inconclusive [inhibitor, single point]",–
CCN(CC)S(=O)(=O)c1ccc(/C(O)=C2/C(=O)C(=O)N(CCOC)C2c2ccccc2)cc1 (stereo not given),inactive,–
CCC(C)(C(=O)NC1CCCCC1)N(Cc1ccco1)C(=O)Cc1cccs1 (stereo not given),"inconclusive [inhibitor, single point]",–
CC(C)NC(=O)NC(=O)CN1c2cccc3cccc(c23)S1(=O)=O,inactive,–
COc1cc(/C=N\NC(=O)c2ccc(-c3ccccc3)cc2)ccc1OCC(N)=O,"inconclusive [inhibitor, single point]",–
CSc1nc(-c2ccccc2)nc(N2CCOCC2)c1C(C)=O,inactive,–
Cc1cc(Br)c(NC(=O)CCl)c(Br)c1,inactive,–
Cc1ccc(C)c(NC(=O)CCC(=O)N/N=C/c2ccc[nH]2)c1,inactive,–
Cc1cc(C)c2oc(C(=O)N3CCN(C)CC3)cc(=O)c2c1,inactive,–
Cc1ccc(-c2cn(-c3cccc(Cl)c3)c(S(=O)(=O)CC(=O)Nc3cccc(C)c3)n2)cc1,active: 16.4 µM,–
Cc1cccc(Nc2nc(N)nc(CSC(=S)N3CCOCC3)n2)c1,"inconclusive [inhibitor, partial curve]",–
